# From PubChem BioAssay AID686970 (National Center for Advancing Translational Sciences (NCATS), 2013)
# The campaign covered roughly 360,000 compounds. About 6,000 (1.7%) were called active. Inconclusive means that the source gave no clear call. Such entries were picked first, then a sample of the others. Calls follow the shape of the dose curve; as a rule, active = well fitted cell-killing curve with a large enough effect; inconclusive = small, poorly fitted or top-dose-only effect, or effect the other way; inactive = flat fitted curve, though single readings scatter. No potency is given beside an inconclusive call; the fits are too rough.
# Assay: qHTS for induction of synthetic lethality in tumor cells producing 2HG: qHTS for the HT-1080-NT fibrosarcoma cell line;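 also: NT is the 2HG producing partner of a matched IDH1 knockdown line; nearly all actives have a fitted effect of over 55% in size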;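 as to activity, negative = less viability: 0% = DMSO-treated cells and -100% = media-only wells without cells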
# Settings: HT-1080-NT fibrosarcoma viability, CellTiter-Glo ATP luminescence, 48 h; activity, negative = less viability: at 46.1 µM (top of the series)
# Method in brief: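 HT-1080-NT; 750 cells/well; 5% FBS RPMI; 48 h compound, 37 degrees C; CellTiter-Glo luminescence; curve fitting and curve-class assignment.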
# Potency is read from the fitted curve at half-maximal effect; tags tell the direction and shape of the fitted curve.
SMILES,Potency,"activity, negative = less viability"
O=C(c1ccccc1)C(CN1CCCC1)c1ccccc1 (centres undefined),active: 20.6 µM,–
O=C1CN=C(c2ccc(Br)cc2)c2c(sc3c2CCCC3)N1CCN1CCCCC1,"inconclusive [cytotoxic, single point]",–
O=c1[nH]c2ccccc2n1C1CCN(C(c2cccc3ccccc23)c2nnnn2Cc2ccccc2)CC1 (centres undefined),"inconclusive [cytotoxic, single point]",–
CCOc1ccc(N2C(=O)NC(=O)/C(=C\c3ccc(N4CCCCC4)o3)C2=O)cc1,inactive,–
C=CCn1c(O)c(C(CC)=NCCc2c[nH]c3ccccc23)c(=O)[nH]c1=O,"inconclusive [cytotoxic, single point]",–
Cn1c(=O)oc2cc(S(=O)(=O)N3CCCc4ccccc43)ccc21,active: 6.51 µM,–
CC(C)(C)c1ccc(CN2C(=O)CN=C(c3ccccc3)c3ccccc32)cc1,"inconclusive [cytotoxic, single point]",–
COc1ccc2[nH]c3c(c2c1)CCN[C@H]3C,"inconclusive [cytotoxic, single point]",–
CN1CN(c2ccccc2)C2(CCN(CCCSc3ccccc3NC(=O)/C=C/c3ccccc3)CC2)C1=O,"inconclusive [cytotoxic, single point]",–
Fc1ccc(C(OCCN2CCCC2)c2ccc(Br)cc2)cc1 (centres undefined),active: 16.4 µM,–
Nc1c2c(nc3sc4c(c13)CCCC4)CCCC2,"inconclusive [cytotoxic, single point]",–
N#Cc1cc2c(nc1SCC(=O)Nc1cc(Cl)ccc1Cl)C1CCN2CC1,"inconclusive [cytotoxic, single point]",–
CC/C(=N\N1CCCCCC1)c1c(O)n(-c2ccccc2C)c(=O)[nH]c1=O,inactive,–
O=C(Nc1ccc(Cl)cc1)Nc1nccs1,active: 7.31 µM,–
O=C(c1ccc2c(c1)OCO2)N1CCC2(CC1)OCCO2,inactive,–
C[C@]12CC[C@H](O)C[C@@H]1CC[C@@H]1[C@@H]2CC[C@]2(C)C(=O)CC[C@@H]12,"inconclusive [cytotoxic, partial curve]",–
O=C1C(Cl)=C(N2CCCCCC2)C(=O)N1c1ccccc1,"inconclusive [rising, partial curve]",–
O=C1CC2(CCCC2)CC(=O)N1CCCCN1CCN(c2ncccn2)CC1,"inconclusive [rising, single point]",–
COc1cccc(C(O)c2nc(-c3ccncc3)cs2)c1 (centres undefined),"inconclusive [cytotoxic, partial curve]",–
COCCCn1c(N)c(C(=O)OC(C)COC)c2nc3ccccc3nc21 (centres undefined),inactive,–
COc1ccc(Cn2c(O)c(/C=N/NC(=O)c3ccccc3O)c(=O)[nH]c2=O)cc1,"inconclusive [cytotoxic, single point]",–
COc1ccc2c(c1)C13CCCC[C@@H]1C(C2)N(C)CC3 (some centres undefined),"inconclusive [cytotoxic, single point]",–
O=c1c2ccccc2nc(CSc2ncnc3nc[nH]c23)n1-c1ccccc1,"inconclusive [cytotoxic, single point]",–

SMILES,Potency,"activity, negative = less viability"
CC12CCC3C(CCC4CC(=O)OCC43C)C1CCC2O (centres undefined),inactive,–
CCOC(=O)[C@]12Cc3cc(C)ccc3[C@H]1N(C1CCCCC1)C(=O)c1ccccc12,active: 3.66 µM,–
CCOc1cccc(C2NCc3ccccc3-n3cccc32)c1O (centres undefined),"inconclusive [cytotoxic, partial curve]",–
Cn1cccc1CN1CCN(C(=O)COc2ccccc2)CC1,inactive,–
CC1NCCC2(O)CCCCC12 (centres undefined),"inconclusive [cytotoxic, single point]",–
CCOC(=O)[C@]12Cc3ccccc3[C@H]1N(C(C)C)C(=O)c1ccccc12,"inconclusive [cytotoxic, single point]",–
CCOC(=O)[C@]12Cc3ccccc3[C@H]1N(CCC(=O)OC)C(=O)c1ccccc12,"inconclusive [cytotoxic, single point]",–
CCC1C2Cc3ccc(O)cc3C1(CC)CCN2C (centres undefined),inactive,–
CCC1(C(=O)c2ccccc2)C2c3ccccc3OC(=O)C21C(C)=O (centres undefined),"inconclusive [rising, single point]",–
CCC1(c2ccc(N)cc2)CCC(=O)NC1=O (centres undefined),"inconclusive [rising, partial curve, poor fit]",–
COC(=O)C1=C(c2ccc(Cl)c(C(F)(F)F)c2)C[C@@H]2CC[C@H]1N2C(=O)NCCNC(C)=O,"inconclusive [rising, single point]",–
COc1ccc(-c2nn(CCC#N)cc2C(=O)Nc2ccccc2Br)cc1[N+](=O)[O-],–,inconclusive: -1.71% [cytotoxic]
CCCCCCn1c(=O)c(C(=O)Nc2ncccc2C)c(O)c2ccccc21,"inconclusive [cytotoxic, single point]",–
CSCCC(c1nnnn1-c1c(C)cccc1C)N1CCC2(CC1)C(=O)NCN2c1ccccc1 (centres undefined),"inconclusive [cytotoxic, single point]",–
COc1ccc(N=Nc2c(O)[nH]c(=S)[nH]c2=O)cc1,"inconclusive [cytotoxic, single point]",–
CCOc1ccc(-c2cc(C)[n+](CCN(CC)CC)c(-c3ccc(OCC)cc3)c2)cc1,active: 8.2 µM,–
Cc1cc(C)[n+](Cc2ccccc2)cc1C(N)=O,"inconclusive [rising, single point]",–
CCC1(CCC(C)C)C(=O)NC(=S)NC1=O,inactive,–
COc1ccc(C(c2nnnn2-c2c(C)cccc2C)N2CCC(n3c(=O)[nH]c4ccccc43)CC2)cc1 (centres undefined),"inconclusive [cytotoxic, single point]",–
c1ccc(CNc2c3c(nc4ccccc24)CCC3)cc1,"inconclusive [cytotoxic, single point]",–
CN(C)c1ccc(/C=C/C=C/c2sc3ccccc3[n+]2C)cc1,active: 20.6 µM,–
CCCCC(=O)N/N=C/c1c(O)n(CCc2ccccc2)c(=O)[nH]c1=O,"inconclusive [cytotoxic, single point]",–
CCNC(=O)[C@H]1O[C@@H](n2cnc3c(N)ncnc32)[C@H](O)[C@@H]1O,inactive,–

SMILES,Potency,"activity, negative = less viability"
COc1cccc(NP(=O)(Oc2ccc(Cl)cc2)Oc2ccc(Cl)cc2)c1,"inconclusive [cytotoxic, single point]",–
Cc1c(C(=O)Nc2ccccc2)c2cc(O)ccc2n1Cc1ccccc1,"inconclusive [cytotoxic, single point]",–
CC(NCc1ccc(Cl)c(Cl)c1)C(O)c1ccccc1 (centres undefined),"inconclusive [cytotoxic, single point]",–
C[n+]1c(-c2ccccc2)cc(-c2ccc(Cl)cc2)cc1-c1ccccc1,"inconclusive [cytotoxic, single point]",–
CC(C)Cc1[nH]c(=O)c(C#N)c2c1CCC2,inactive,–
COCCNC(=O)c1c(N)n(Cc2ccco2)c2nc3ccccc3nc12,inactive,–
N#Cc1cc(NC(=O)c2ccc(Cl)cc2)ccc1Sc1ccccc1,"inconclusive [cytotoxic, partial curve, poor fit]",–
CCOC(=O)[C@]12Cc3cc(C)ccc3[C@H]1N(CCC(=O)OC)C(=O)c1ccccc12,active: 16.4 µM,–
O=c1c2ccccc2sn1-c1ccc(Cl)cc1,"inconclusive [cytotoxic, single point]",–
C[C@]12CC[C@H](N)CC1=CCC1C2CC[C@@]2(C)C1CC[C@@H]2O (some centres undefined),"inconclusive [cytotoxic, single point]",–
O=c1[nH]c2ccccc2n1C1CCN(C(c2nnnn2-c2ccc3c(c2)OCCO3)C2CC2)CC1 (centres undefined),"inconclusive [cytotoxic, partial curve]",–
Nc1nc(SCCC(F)=C(F)F)n[nH]1,inactive,–
Cc1cc(C)cc(NC(=S)NC2CC3CCCC(C2)N3Cc2cccs2)c1 (centres undefined),"inconclusive [cytotoxic, single point]",–
CCCNC(=O)N1[C@H]2CC[C@@H]1C(C(=O)OC)=C(c1ccc(OC)c(OC)c1)C2,"inconclusive [rising, single point]",–
CCn1c(=O)oc2cc(NC(=O)CCl)ccc21,active: 8.2 µM,–
O=C1NC(=O)N(Cc2ccccc2)C(=O)/C1=C/C=C/c1ccco1,"inconclusive [cytotoxic, single point]",–
CCOc1cc2c(cc1OCC)-n1cccc1C(c1ccccc1O)NC2 (centres undefined),"inconclusive [cytotoxic, single point]",–
Cc1cc(NC(=O)CSc2nc3c(c(=O)n2-c2ccc(Cl)cc2)SCC3)no1,"inconclusive [cytotoxic, partial curve]",–
COc1ccc(Oc2cc(NC(=O)c3nn(C)cc3[N+](=O)[O-])cc([N+](=O)[O-])c2)cc1,active: 18.4 µM,–
CCc1ccc(CN2CCN(Cc3ccc(SC)cc3)CC2)cc1,"inconclusive [cytotoxic, single point]",–
C=CCn1c(O)c(/C=C2/C=CC=N2)c(=O)[nH]c1=O,"inconclusive [cytotoxic, single point]",–
COc1ccc(OC(=O)Nc2ccccc2)cc1,"inconclusive [cytotoxic, single point]",–
Cc1cc2ccccn2c1C(C[N+](=O)[O-])c1c(F)cccc1Cl (centres undefined),"inconclusive [cytotoxic, partial curve, poor fit]",–
